In brackets after ≈: the same amount, converted by molar mass.
Tests used:
[1] = system: methicillin-resistant Staphylococcus aureus (MRSA) strain BAA-1707 (USA-400; MW2); assay: MIC, spiral gradient endpoint assay, MRSA; details: for MIC: Staphylococcus aureus, 16 h, read-out: MIC S. aureus MRSA BAA-1707
[2] = system: Escherichia coli strain D21f2tolC; assay: MIC, spiral gradient endpoint assay, E. coli; details: for MIC: Escherichia coli, D21F2TOLC, 16 h, read-out: MIC E. coli D21f2tolC
[3] = system: methicillin-sensitive Staphylococcus aureus (MSSA) strain ATCC 12600; assay: MIC, spiral gradient endpoint assay, MSSA; details: for MIC: Staphylococcus aureus, 16 h, read-out: MIC S. aureus MSSA 12600
[4] = system: methicillin-resistant Staphylococcus aureus (MRSA) strain BAA-1707 (USA-400, MW2); assay: Mouse model of S. aureus systemic infection (peritonitis model), MRSA; details: mice; for PD50: 50% survival at 24 h (probit method); for PD100: 100% survival at 24 h
[5] = system: methicillin-sensitive Staphylococcus aureus (MSSA) strain 8325-4; assay: Mouse model of S. aureus systemic infection (peritonitis model), MSSA; details: mice, intravenous administration; for PD50: 50% survival at 24 h (probit method); for PD100: 100% survival at 24 h
[6] = 16 h at 37° C., Mueller-Hinton II agar

Row | SMILES | MIC [1] | MIC [2] | MIC [3] | PD50 ([4]; oral administration) | PD100 ([4]; oral administration) | PD50 [5] | PD100 [5] | MIC S. aureus MRSA BAA-1707 [1, 6] | PD50 ([4]; intravenous administration) | PD100 ([4]; intravenous administration) | MIC E. coli D21f2tolC [2, 6] | MIC S. aureus MSSA 12600 [3, 6]
1 | COC(=O)N/C=C/CCC(C)c1cc(O)c(C(=O)/C(C)=C/C=C(\C)CCCCC(F)(F)F)c(=O)o1 (stereo not shown) [compound 3, Methyl ((E)-5-(4-hydroxy-2-oxo-3-((2E,4E)-10,10,10-trifluoro-2,5-dimethyldeca-2,4-dienoyl)-2H-pyran-6-yl)hex-1-en-1-yl)carbamate] | 3 µg/mL (≈ 6.01 µM) | 0.3 µg/mL (≈ 0.601 µM) | 1 µg/mL (≈ 2 µM) | – | – | – | – | – | – | – | – | –
2 | COC(=O)N/C=C/CCC(C)c1cc(O)c(C(=O)/C(C)=C/C=C(\C)CCC(F)(F)F)c(=O)o1 (stereo not shown) [compound 5] | 1 µg/mL (≈ 2.12 µM) | 0.2 µg/mL (≈ 0.424 µM) | 0.9 µg/mL (≈ 1.91 µM) | 20 mg/kg | 50 mg/kg | 7 mg/kg | 25 mg/kg | – | – | – | – | –
3 | CCCC/C(C)=C/C=C(\C)C(=O)c1c(O)cc([C@H](C)CC/C=C/NC(=O)OC)oc1=O (racemic) [Myx B, (±)myxopyronin B, reference compound] | – | – | – | 40 mg/kg | 100 mg/kg | 30 mg/kg | >50 mg/kg | 0.9 µg/mL (≈ 2.09 µM) | 20 mg/kg | 50 mg/kg | 0.1 µg/mL (≈ 0.232 µM) | 0.6 µg/mL (≈ 1.39 µM)
4 | COC(=O)N/C=C/CCCc1cc(O)c(C(=O)/C(C)=C/C=C(\C)CCC(F)(F)F)c(=O)o1 [compound 11, Methyl ((E)-5-(4-hydroxy-2-oxo-3-((2E,4E)-8,8,8-trifluoro-2,5-dimethylocta-2,4-dienoyl)-2H-pyran-6-yl)pent-1-en-1-yl)carbamate] | 2 µg/mL (≈ 4.37 µM) | 0.2 µg/mL (≈ 0.437 µM) | 2 µg/mL (≈ 4.37 µM) | – | – | – | – | – | – | – | – | –
5 | COC(=O)N/C=C/CCC(C)c1cc(O)c(C(=O)/C(C)=C/C=C(\C)CCCC(F)(F)F)c(=O)o1 (stereo not shown) [compound 1, Methyl ((E)-5-(4-hydroxy-2-oxo-3-((2E,4E)-9,9,9-trifluoro-2,5-dimethylnona-2,4-dienoyl)-2H-pyran-6-yl)hex-1-en-1-yl)carbamate] | 0.5 µg/mL (≈ 1.03 µM) | 0.07 µg/mL (≈ 0.144 µM) | 0.3 µg/mL (≈ 0.618 µM) | – | – | 20 mg/kg | >25 mg/kg | – | 10 mg/kg | 50 mg/kg | – | –
6 | COC(=O)N/C=C/CCCc1cc(O)c(C(=O)/C(C)=C/C=C(\C)CCCC(F)(F)F)c(=O)o1 [compound 9, Methyl ((E)-5-(4-hydroxy-2-oxo-3-((2E,4E)-9,9,9-trifluoro-2,5-dimethylnona-2,4-dienoyl)-2H-pyran-6-yl)pent-1-en-1-yl)carbamate] | 0.8 µg/mL (≈ 1.7 µM) | 0.2 µg/mL (≈ 0.424 µM) | 0.9 µg/mL (≈ 1.91 µM) | – | – | 10 mg/kg | 25 mg/kg | – | – | – | – | –
